Source: publication PMC5892938
This is one part of the list. At the low end of the ranking the order means little.

What follows are sequences tested against GST-SBP-SLBP (stem-loop binding protein) (UniProt Q14493) (assay: targeted RNA Bind-n-Seq). Settings: RBNS binding buffer: 25 mM Tris pH 7.5, 150 mM KCl, 3 mM MgCl2, 0.1% Tween, 0.5 mg/mL BSA, 1 mM DTT; 27 nM protein, 750 pM RNA pool; temperature not stated; high values mean tight binding.
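Note: DESeq read counts versus GST-SBP nonspecific binding control pulldown.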

| Sequence | binding signal (log2 fold change) |
| --- | --- |
| GGUCACGUCUCAAUCAACUCAAAAGAGGGGGGGAAAACCCCUUUACCCUCACACUCAACAGCUCGCAGUCAAG | -0.038 |
| GGUCACGUCUCAAUCAACUCUUCCUCAGGAGUUUCCUCCUGUAAUGUCAACAGCUCGCAGUCAAG | 0.16 |
| GGUCACGUCUCAAUCAACUCUCCAGAGGGGGGGAAAACCCCUUUGCCCUCCAAUUCAACAGCUCGCAGUCAAG | -0.433 |
| GGUCACGUCUCAAUCAACUCAACUCCAGGAGUUUCCUCCUGUAAUUUCAACAGCUCGCAGUCAAG | -0.306 |
| GGUCACGUCUCAAUCAACUCUUUCUCAGGAGUUUACUCCUGUUAACUCAACAGCUCGCAGUCAAG | -0.0782 |
| GGUCACGUCUCAAUCAACUCUACUUCAGGAGUUUUCUCCUGUUAAUUCAACAGCUCGCAGUCAAG | -0.00184 |
| GGUCACGUCUCAAUCAACUCAUCGCCAGGAGUUUACUCCUGUUUUUUCAACAGCUCGCAGUCAAG | -0.119 |
| GGUCACGUCUCAAUCAACUCUUUAGAGGGGGGGAAAACCCCUUUACCCUCGUCCUCAACAGCUCGCAGUCAAG | 0.135 |
| GGUCACGUCUCAAUCAACUCAUGUCCAGGAGUUUCCUCCUGCAAUCUCAACAGCUCGCAGUCAAG | 0.0967 |
| GGUCACGUCUCAAUCAACUCAAUCCCAGGAGUUUGCUCCUGUAUACUCAACAGCUCGCAGUCAAG | -0.0166 |
| GGUCACGUCUCAAUCAACUCUAUUUCCAGGGAAAUCCCUGGUUUAUUCAACAGCUCGCAGUCAAG | -0.302 |
| GGUCACGUCUCAAUCAACUCAAUCCCCAGGGAAAACCCUGGCAAUUUCAACAGCUCGCAGUCAAG | -0.032 |
| GGUCACGUCUCAAUCAACUCAAUUUCCAGGGAAAGCCCUGGCAUUUUCAACAGCUCGCAGUCAAG | 0.185 |
| GGUCACGUCUCAAUCAACUCAUUCUCCAGGGAAAACCCUGGCUAUUUCAACAGCUCGCAGUCAAG | 0.146 |
| GGUCACGUCUCAAUCAACUCUACUCCCAGGGAAAGCCCUGGUAUUUUCAACAGCUCGCAGUCAAG | -0.0722 |
| GGUCACGUCUCAAUCAACUCAUCGCCAGGAGUUUUCUCCUGCUUAUUCAACAGCUCGCAGUCAAG | -0.177 |
| GGUCACGUCUCAAUCAACUCUAUCCCCAGGGAAAGCCCUGGCUAUUUCAACAGCUCGCAGUCAAG | -0.0591 |
| GGUCACGUCUCAAUCAACUCAUCUUCAGGAGUUUGCUCCUGUUUACUCAACAGCUCGCAGUCAAG | 0.0113 |
| GGUCACGUCUCAAUCAACUCAAUCUCAGGAGUUUACUCCUGUAUACUCAACAGCUCGCAGUCAAG | -0.0109 |
| GGUCACGUCUCAAUCAACUCCUAAGAGGGGGGGAAAACCCCUUUACCCUCAUCCUCAACAGCUCGCAGUCAAG | -0.0157 |
| GGUCACGUCUCAAUCAACUCUUCCCCAGGAGUUUUCUCCUGUUAUCUCAACAGCUCGCAGUCAAG | 0.0606 |
| GGUCACGUCUCAAUCAACUCUUCGCCCAGGGAAAACCCUGGUUAUUUCAACAGCUCGCAGUCAAG | 0.0308 |
| GGUCACGUCUCAAUCAACUCUACUCCCAGGGAAAACCCUGGUAAUUUCAACAGCUCGCAGUCAAG | 0.454 |
| GGUCACGUCUCAAUCAACUCAACUUCCAGGGAAACCCCUGGUUUUUUCAACAGCUCGCAGUCAAG | 0.178 |
| GGUCACGUCUCAAUCAACUCUAUCUCCAGGGAAAUCCCUGGCAUUCUCAACAGCUCGCAGUCAAG | -0.167 |

| Sequence | binding signal (log2 fold change) |
| --- | --- |
| GGUCACGUCUCAAUCAACUCUAGUCCAGGAGUUUCCUCCUGUAUAUUCAACAGCUCGCAGUCAAG | -0.000137 |
| GGUCACGUCUCAAUCAACUCUUCGCCCAGGGAAAGCCCUGGUAAUUUCAACAGCUCGCAGUCAAG | -0.192 |
| GGUCACGUCUCAAUCAACUCUUCCCCCAGGGAAAACCCUGGCUAAUUCAACAGCUCGCAGUCAAG | -0.0619 |
| GGUCACGUCUCAAUCAACUCCUACGAGGGGGGGAAAACCCCUUUACCCUCACAAUCAACAGCUCGCAGUCAAG | -0.474 |
| GGUCACGUCUCAAUCAACUCAACGCCAGGAGUUUUCUCCUGUAUUCUCAACAGCUCGCAGUCAAG | -0.0179 |
| GGUCACGUCUCAAUCAACUCAUUCCCAGGAGUUUUCUCCUGCUUAGUCAACAGCUCGCAGUCAAG | 0.0921 |
| GGUCACGUCUCAAUCAACUCAACGCCAGGAGUUUUCUCCUGUUUAUUCAACAGCUCGCAGUCAAG | -0.215 |
| GGUCACGUCUCAAUCAACUCUCUCGAGGGGGGGAAAACCCCUUUACCCUCAAACUCAACAGCUCGCAGUCAAG | -0.00388 |
| GGUCACGUCUCAAUCAACUCAGUUUCCAGGGAAAGCCCUGGUUUAUUCAACAGCUCGCAGUCAAG | 0.00488 |
| GGUCACGUCUCAAUCAACUCUCCCGAGGGGGGGAAAACCCCUUUGCCCUCACAUUCAACAGCUCGCAGUCAAG | 0.0108 |
| GGUCACGUCUCAAUCAACUCAUCUUCAGGAGUUUACUCCUGUUUAGUCAACAGCUCGCAGUCAAG | -0.0298 |
| GGUCACGUCUCAAUCAACUCUUCUCCAGGAGUUUUCUCCUGCUAAUUCAACAGCUCGCAGUCAAG | -0.237 |
| GGUCACGUCUCAAUCAACUCAAGUCCCAGGGAAACCCCUGGCAAAUUCAACAGCUCGCAGUCAAG | -0.0828 |
| GGUCACGUCUCAAUCAACUCUCUAGAGGGGGGGAAAACCCCUUUACCCUCGAUAUCAACAGCUCGCAGUCAAG | -0.305 |
| GGUCACGUCUCAAUCAACUCGUUUUCAGGAGUUUCCUCCUGCUUAUUCAACAGCUCGCAGUCAAG | -0.0376 |
| GGUCACGUCUCAAUCAACUCAUCGCCAGGAGUUUCCUCCUGCUUUCUCAACAGCUCGCAGUCAAG | -0.196 |
| GGUCACGUCUCAAUCAACUCAUAAGAGGGGGGGAAAACCCCUUUGCCCUCAAACUCAACAGCUCGCAGUCAAG | 0.197 |
| GGUCACGUCUCAAUCAACUCUAGUCCCAGGGAAACCCCUGGUAAUUUCAACAGCUCGCAGUCAAG | -0.162 |
| GGUCACGUCUCAAUCAACUCAAGUCCAGGAGUUUACUCCUGUUAAUUCAACAGCUCGCAGUCAAG | -0.124 |
| GGUCACGUCUCAAUCAACUCUAGGUCAGGAGUUUCCUCCUGUAAAUUCAACAGCUCGCAGUCAAG | 0.0665 |
| GGUCACGUCUCAAUCAACUCUCUCGAGGGGGGGAAAACCCCUUUGCCCUCACAUUCAACAGCUCGCAGUCAAG | 0.226 |
| GGUCACGUCUCAAUCAACUCAACUCCCAGGGAAACCCCUGGCUUUCUCAACAGCUCGCAGUCAAG | -0.0101 |
| GGUCACGUCUCAAUCAACUCUUCUCCCAGGGAAACCCCUGGUUUUUUCAACAGCUCGCAGUCAAG | 0.00448 |
| GGUCACGUCUCAAUCAACUCUUCUUCCAGGGAAAACCCUGGUUUACUCAACAGCUCGCAGUCAAG | -0.22 |
| GGUCACGUCUCAAUCAACUCAUUCCCAGGAGUUUUCUCCUGUUAUCUCAACAGCUCGCAGUCAAG | 0.0936 |

| Sequence | binding signal (log2 fold change) |
| --- | --- |
| GGUCACGUCUCAAUCAACUCUUCCUCCAGGGAAACCCCUGGUAUUUUCAACAGCUCGCAGUCAAG | 0.267 |
| GGUCACGUCUCAAUCAACUCUAUUCCAGGAGUUUCCUCCUGUUUUUUCAACAGCUCGCAGUCAAG | -0.0612 |
| GGUCACGUCUCAAUCAACUCUUAAGAGGGGGGGAAAACCCCUUUACCCUCCACAUCAACAGCUCGCAGUCAAG | -0.112 |
| GGUCACGUCUCAAUCAACUCCACAGAGGGGGGGAAAACCCCUUUACCCUCAAACUCAACAGCUCGCAGUCAAG | -0.145 |
| GGUCACGUCUCAAUCAACUCUCUAGAGGGGGGGAAAACCCCUUUACCCUCACUUUCAACAGCUCGCAGUCAAG | 0.308 |
| GGUCACGUCUCAAUCAACUCUAUCCCAGGAGUUUCCUCCUGCAUUUUCAACAGCUCGCAGUCAAG | 0.0547 |
| GGUCACGUCUCAAUCAACUCUUCCUCCAGGGAAAACCCUGGCUAACUCAACAGCUCGCAGUCAAG | 0.0355 |
| GGUCACGUCUCAAUCAACUCAUUUUCCAGGGAAAUCCCUGGCUUUUUCAACAGCUCGCAGUCAAG | -0.0822 |
| GGUCACGUCUCAAUCAACUCAUCCUCAGGAGUUUUCUCCUGUUAACUCAACAGCUCGCAGUCAAG | -0.00965 |
| GGUCACGUCUCAAUCAACUCAAUCUCCAGGGAAAUCCCUGGCUUAUUCAACAGCUCGCAGUCAAG | 0.232 |
| GGUCACGUCUCAAUCAACUCUACGGCAGGAGUUUUCUCCUGGAAUUUCAACAGCUCGCAGUCAAG | 0.0297 |
| GGUCACGUCUCAAUCAACUCUUCGUCAGGAGUUUCCUCCUGUAAACUCAACAGCUCGCAGUCAAG | -0.0206 |
| GGUCACGUCUCAAUCAACUCUAUUCCCAGGGAAAUCCCUGGUUAAUUCAACAGCUCGCAGUCAAG | 0.122 |
| GGUCACGUCUCAAUCAACUCUCAAGAGGGGGGGAAAACCCCUUUGCCCUCGUAUUCAACAGCUCGCAGUCAAG | -0.159 |
| GGUCACGUCUCAAUCAACUCAUCUUCAGGAGUUUUCUCCUGCAUACUCAACAGCUCGCAGUCAAG | 0.127 |
| GGUCACGUCUCAAUCAACUCAACUUCAGGAGUUUACUCCUGUUAUUUCAACAGCUCGCAGUCAAG | -0.0153 |
| GGUCACGUCUCAAUCAACUCAUCUUCCAGGGAAAUCCCUGGCUUAUUCAACAGCUCGCAGUCAAG | 0.0142 |
| GGUCACGUCUCAAUCAACUCCACAGAGGGGGGGAAAACCCCUUUACCCUCCAACUCAACAGCUCGCAGUCAAG | -0.0663 |
| GGUCACGUCUCAAUCAACUCUCAGGAGGGGGGGAAAACCCCUUUACCCUCAAUCUCAACAGCUCGCAGUCAAG | -0.0842 |
| GGUCACGUCUCAAUCAACUCAUUCCCAGGAGUUUCCUCCUGCAUUUUCAACAGCUCGCAGUCAAG | 0.00217 |
| GGUCACGUCUCAAUCAACUCAAUUCCAGGAGUUUUCUCCUGCAAACUCAACAGCUCGCAGUCAAG | 0.0933 |
| GGUCACGUCUCAAUCAACUCAAUCCCAGGAGUUUUCUCCUGUAUUUUCAACAGCUCGCAGUCAAG | 0.00353 |
| GGUCACGUCUCAAUCAACUCCUAAGAGGGGGGGAAAACCCCUUUACCCUCCGUAUCAACAGCUCGCAGUCAAG | -0.376 |
| GGUCACGUCUCAAUCAACUCUUCCCCCAGGGAAAUCCCUGGCUUAUUCAACAGCUCGCAGUCAAG | -0.15 |
